Some of the results follow. These are noisy estimates, calculated here from bound and input reads.

The values that follow come from the BET-seq Pho4 binding data (Le et al. 2018).

This experiment addresses T1, Pho4 (S. cerevisiae) (UniProt P07270).
T1 sequence: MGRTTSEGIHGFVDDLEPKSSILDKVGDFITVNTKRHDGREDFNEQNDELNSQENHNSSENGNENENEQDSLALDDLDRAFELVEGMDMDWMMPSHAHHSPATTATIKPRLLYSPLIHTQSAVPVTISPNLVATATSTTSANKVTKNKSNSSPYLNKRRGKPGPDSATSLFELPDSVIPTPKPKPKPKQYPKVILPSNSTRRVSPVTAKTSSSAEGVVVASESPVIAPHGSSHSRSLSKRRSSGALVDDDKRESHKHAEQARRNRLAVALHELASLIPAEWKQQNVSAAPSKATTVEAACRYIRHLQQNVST
As to the kind of experiment: relative binding free energy (BET-seq); higher = weaker binding. The settings on record: reference: library average.
Regarding TGGAACACGTGTGGAG, the “relative binding free energy” value worked out at 0.13 kcal/mol.
The figure for ATGATCACGTGTGTTC is 0.12 kcal/mol; for GGCGGCACGTGATTGT it is 0.13 kcal/mol.
AGATTCACGTGAGATG: the “relative binding free energy” value stood at 0.4 kcal/mol.
Take TGGCTCACGTGTTGGG: the “relative binding free energy” value worked out at 0.18 kcal/mol.
The result for TCGAGCACGTGTTGGT reads -0.06 kcal/mol.
The figure for AATGGCACGTGGATTT is -0.01 kcal/mol; for CAATGCACGTGAGTTG it is 0.25 kcal/mol; for GATTTCACGTGCGTTG it is 0.17 kcal/mol.
The result for AGCTGCACGTGGGAGG reads -0.09 kcal/mol; that for TAAGGCACGTGCGTAG, -0.09 kcal/mol; that for TTATTCACGTGATGGC, 0.31 kcal/mol.
Turning to TGAAGCACGTGGAGTC, the “relative binding free energy” value stood at 0.05 kcal/mol.
As to ATATTCACGTGCGAGT, the “relative binding free energy” value is 0.23 kcal/mol.
The result for TAGTGCACGTGGCGTT reads -0.12 kcal/mol.
The figure for TTCAGCACGTGGGTTA is -0.13 kcal/mol; for GTAAACACGTGTGATT it is 0 kcal/mol.
Turning to AGGTTCACGTGCGGTT, the “relative binding free energy” value came to 0.22 kcal/mol.
The figure for AGTTGCACGTGAAGCG is 0.36 kcal/mol.
Turning to GTTAGCACGTGAGGGA, the “relative binding free energy” value was 0.17 kcal/mol.
The figure for ATATGCACGTGTCGTT is -0.01 kcal/mol; for TAAGCCACGTGGGTGA it is -0.12 kcal/mol.
The result for TTCGACACGTGGGGTA reads -0.18 kcal/mol.
Turning to ACTTGCACGTGTTATT, the “relative binding free energy” value came to 0.05 kcal/mol.
The figure for AGGGGCACGTGATAAT is -0.08 kcal/mol; for AGTGCCACGTGGTGCG it is -0.19 kcal/mol; for AGTTACACGTGTTCAT it is 0.07 kcal/mol.
The figure for ATGTTCACGTGTGCGC is 0.32 kcal/mol; for TAGGCCACGTGTCTGG it is -0.05 kcal/mol; for TATTACACGTGAATTG it is 0.32 kcal/mol.
The figure for AAAGTCACGTGTGACG is 0.21 kcal/mol; for TGTTACACGTGCGTAG it is 0.06 kcal/mol; for ATAGTCACGTGAAATG it is 0.22 kcal/mol.
As for TTGGACACGTGGGTTC, the “relative binding free energy” value is -0.01 kcal/mol.
The figure for CGTTGCACGTGGGAGC is -0.07 kcal/mol.
For TTTTGCACGTGTATGC, the “relative binding free energy” value turned out to be 0.04 kcal/mol.
As to TTTGTCACGTGGGCCT, the “relative binding free energy” value was -0.09 kcal/mol.
For TAATGCACGTGGTTTT, the “relative binding free energy” value is -0.06 kcal/mol.
In the case of TAATTCACGTGGACTT, the “relative binding free energy” value came out at 0.28 kcal/mol.
The figure for GATGTCACGTGTTGTA is 0.15 kcal/mol; for TGAGACACGTGGACGT it is 0.18 kcal/mol; for TACGACACGTGTGGTT it is 0.15 kcal/mol.
GTGTACACGTGCTTAT: the “relative binding free energy” value is -0.02 kcal/mol.
The figure for TTATGCACGTGTCATT is -0.03 kcal/mol; for GGGCTCACGTGGGTGA it is 0.17 kcal/mol; for TTAAACACGTGTGTGG it is -0.1 kcal/mol.
The figure for ATAGTCACGTGGTCTA is -0.04 kcal/mol; for GTAAACACGTGGTTGA it is 0.02 kcal/mol; for TAAGGCACGTGTTAGA it is -0.03 kcal/mol.
The result for CGTGGCACGTGACGTT reads -0.07 kcal/mol; that for TTATGCACGTGCTAGT, -0.19 kcal/mol; that for AGGTGCACGTGGTTCG, -0.12 kcal/mol.
In the case of ATATTCACGTGTTTAC, the “relative binding free energy” value was 0.29 kcal/mol.
With GTGTTCACGTGTGGGT, the “relative binding free energy” value was 0.24 kcal/mol.
The figure for GATGTCACGTGTCGCG is 0.19 kcal/mol; for GTTAGCACGTGGATCT it is 0.07 kcal/mol; for TGGATCACGTGAGGAG it is 0.32 kcal/mol.
On to TGATACACGTGGGTGT, for which the “relative binding free energy” value is -0.11 kcal/mol.
The figure for CTTGGCACGTGGAAAA is 0.19 kcal/mol; for CTTTGCACGTGGGTCG it is -0.17 kcal/mol.
The result for TTGGGCACGTGCGTTT reads -0.1 kcal/mol.
With TTATACACGTGCGTGG, the “relative binding free energy” value turned out to be 0.04 kcal/mol.
The result for AATTTCACGTGTCAGG reads 0.29 kcal/mol.
